# From the supplement of paper PMC4604168 (melanoma cell lines)
# The other results are listed elsewhere or left out. Repeats are few or missing, and single values can be far off.
# Tests used:
# Assay in all cases: cell count relative to DMSO control; melanoma cells; higher = more viable cells
# Conditions in all cases: library dose: low library concentration; 72 h
# MeWo = tested on: MeWo
# RPMI7951 = tested on: RPMI7951
# RVH-421 = tested on: RVH-421
# SkMel28 = tested on: SkMel28
# SkMel2 = tested on: SkMel2
# SkMel30 = tested on: SkMel30
# SkMel5 = tested on: SkMel5
# UACC257 = tested on: UACC257
# UACC62 = tested on: UACC62
# MZ2-MEL = tested on: MZ2-MEL
# 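Further: cell number obtained by counting DAPI-stained nuclei in high-throughput microscope images with image analysis software, screen run in 1,536-well plates.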
SMILES,cell count (MeWo) [%],cell count (RPMI7951) [%],cell count (RVH-421) [%],cell count (SkMel28) [%],cell count (SkMel2) [%],cell count (SkMel30) [%],cell count (SkMel5) [%],cell count (UACC257) [%],cell count (UACC62) [%],cell count (MZ2-MEL) [%]
"CC(=O)O[C@@]12CO[C@@H]1C[C@H](O)[C@@]1(C)C(=O)[C@H](O)C3=C(C)[C@@H](OC(=O)[C@H](O)[C@@H](NC(=O)OC(C)(C)C)c4ccccc4)C[C@@](O)([C@@H](OC(=O)c4ccccc4)[C@H]21)C3(C)C [Docetaxel] + COc1cc2ncnc(Nc3ccc(Oc4ccccc4)cc3)c2cc1OC [SrcI1] (first compound 0.0001 µM, partner dose 2 µM)",38.9,36.9,65.7,32.5,41.7,41.6,68.2,52.1,48.6,–
"Nc1ccn([C@@H]2O[C@H](CO)[C@@H](O)C2(F)F)c(=O)n1 [gemcitabine] + O=C(CCCCCCC(=O)Nc1ccccc1)NO [vorinostat] (first compound 0.0004 µM, partner dose 0.08 µM)",105,100,86,86.7,–,120,98.3,95.8,82.4,–
"CO[C@H]1C[C@@H]2CC[C@@H](C)[C@@](O)(O2)C(=O)C(=O)N2CCCC[C@H]2C(=O)O[C@H]([C@H](C)C[C@@H]2CC[C@@H](OCCO)[C@H](OC)C2)CC(=O)[C@H](C)/C=C(\C)[C@@H](O)[C@@H](OC)C(=O)[C@H](C)C[C@H](C)/C=C/C=C/C=C/1C [everolimus] + CNC(=O)c1cc(Oc2ccc(NC(=O)Nc3ccc(Cl)c(C(F)(F)F)c3)cc2)ccn1 [sorafenib] (first compound 0.02 µM, partner dose 0.4 µM)",76.4,93.3,93.5,47.2,–,80.7,–,–,72.4,67.8
"Nc1ccn([C@@H]2O[C@H](CO)[C@@H](O)C2(F)F)c(=O)n1 [gemcitabine] + O=C(Nc1ccccc1)c1cc([N+](=O)[O-])ccc1Cl [GW9662] (first compound 0.0004 µM, partner dose 2 µM)",99.2,75,97.7,87.6,–,95,95.1,96.6,96.5,–
"CO[C@H]1C[C@@H]2CC[C@@H](C)[C@@](O)(O2)C(=O)C(=O)N2CCCC[C@H]2C(=O)O[C@H]([C@H](C)C[C@@H]2CC[C@@H](OCCO)[C@H](OC)C2)CC(=O)[C@H](C)/C=C(\C)[C@@H](O)[C@@H](OC)C(=O)[C@H](C)C[C@H](C)/C=C/C=C/C=C/1C [everolimus] + OCCn1cc(-c2cnc3nnn(Cc4ccc5ncccc5c4)c3n2)cn1 [PF04217903] (first compound 0.02 µM, partner dose 1 µM)",78,103,71.3,50.3,–,73,96.3,76.3,68.4,–
"CO[C@H]1C[C@@H]2CC[C@@H](C)[C@@](O)(O2)C(=O)C(=O)N2CCCC[C@H]2C(=O)O[C@H]([C@H](C)C[C@@H]2CC[C@@H](OCCO)[C@H](OC)C2)CC(=O)[C@H](C)/C=C(\C)[C@@H](O)[C@@H](OC)C(=O)[C@H](C)C[C@H](C)/C=C/C=C/C=C/1C [everolimus] + Nc1ncn([C@H]2C[C@H](O)[C@@H](CO)O2)c(=O)n1 [decitabine] (first compound 0.02 µM, partner dose 0.1 µM)",75.1,81.5,86.2,53.5,–,84.6,–,–,64.7,70.2
"CO[C@H]1C[C@@H]2CC[C@@H](C)[C@@](O)(O2)C(=O)C(=O)N2CCCC[C@H]2C(=O)O[C@H]([C@H](C)C[C@@H]2CC[C@@H](OCCO)[C@H](OC)C2)CC(=O)[C@H](C)/C=C(\C)[C@@H](O)[C@@H](OC)C(=O)[C@H](C)C[C@H](C)/C=C/C=C/C=C/1C [everolimus] + Cn1nnc2c(C(N)=O)ncn2c1=O [temozolomide] (first compound 0.02 µM, partner dose 2 µM)",65.2,69.3,57.5,67.8,–,64.4,–,–,60.1,74.9
"CO[C@H]1C[C@@H]2CC[C@@H](C)[C@@](O)(O2)C(=O)C(=O)N2CCCC[C@H]2C(=O)O[C@H]([C@H](C)C[C@@H]2CC[C@@H](OCCO)[C@H](OC)C2)CC(=O)[C@H](C)/C=C(\C)[C@@H](O)[C@@H](OC)C(=O)[C@H](C)C[C@H](C)/C=C/C=C/C=C/1C [everolimus] + CCc1ccc(CCOc2ccc(CC3SC(=O)NC3=O)cc2)nc1 [pioglitazone] (first compound 0.02 µM, partner dose 2 µM)",73.1,92.3,73.4,65.6,–,61.8,116,70.7,72.7,–
"CC(=O)c1c(C)c2cnc(Nc3ccc(N4CCNCC4)cn3)nc2n(C2CCCC2)c1=O [palbociclib] + COc1cc(Nc2ncc(F)c(Nc3ccc4c(n3)NC(=O)C(C)(C)O4)n2)cc(OC)c1OC [Tamatinib] (first compound 0.04 µM, partner dose 0.4 µM)",65.8,59,79.6,66.1,–,76.1,60,48.9,69.3,–
"Nc1nc(F)nc2c1ncn2[C@@H]1O[C@H](CO)[C@@H](O)[C@@H]1O [fludarabine] + Cn1nnc2c(C(N)=O)ncn2c1=O [temozolomide] (first compound 0.2 µM, partner dose 2 µM)",27.5,79,98.9,79.2,–,22.8,–,–,71.6,–
"CC(=O)c1c(C)c2cnc(Nc3ccc(N4CCNCC4)cn3)nc2n(C2CCCC2)c1=O [palbociclib] + O=S(=O)(c1ccccc1)N(CC(F)(F)F)c1ccc(C(O)(C(F)(F)F)C(F)(F)F)cc1 [T0901317] (first compound 0.04 µM, partner dose 1.4 µM)",79.9,61.4,67,58.7,73,78.6,70.7,63.1,63.7,–
"Nc1ncn([C@H]2C[C@H](O)[C@@H](CO)O2)c(=O)n1 [decitabine] + COc1ccc(COc2ccc(Cc3cnc(N)nc3N)cc2OC)cc1 [GW2580] (first compound 0.1 µM, partner dose 1 µM)",95.5,93.5,122,87.5,–,108,106,78,70.3,–
"CO[C@H]1C[C@@H]2CC[C@@H](C)[C@@](O)(O2)C(=O)C(=O)N2CCCC[C@H]2C(=O)O[C@H]([C@H](C)C[C@@H]2CC[C@@H](OCCO)[C@H](OC)C2)CC(=O)[C@H](C)/C=C(\C)[C@@H](O)[C@@H](OC)C(=O)[C@H](C)C[C@H](C)/C=C/C=C/C=C/1C [everolimus] + CC(C)CCN1c2nc(Nc3cc(F)c(O)c(F)c3)ncc2N(C)C(=O)C1C [BID1870] (first compound 0.02 µM, partner dose 0.2 µM)",67.2,76.4,86.6,59.2,–,78,106,75.3,54.5,–
"CO[C@H]1C[C@@H]2CC[C@@H](C)[C@@](O)(O2)C(=O)C(=O)N2CCCC[C@H]2C(=O)O[C@H]([C@H](C)C[C@@H]2CC[C@@H](OCCO)[C@H](OC)C2)CC(=O)[C@H](C)/C=C(\C)[C@@H](O)[C@@H](OC)C(=O)[C@H](C)C[C@H](C)/C=C/C=C/C=C/1C [everolimus] + Nc1cccc2c1CN(C1CCC(=O)NC1=O)C2=O [lenalidomide] (first compound 0.02 µM, partner dose 1 µM)",71,78.9,90,56.2,–,83.6,–,–,61.8,71.6
"CC(=O)O[C@@]12CO[C@@H]1C[C@H](O)[C@@]1(C)C(=O)[C@H](O)C3=C(C)[C@@H](OC(=O)[C@H](O)[C@@H](NC(=O)OC(C)(C)C)c4ccccc4)C[C@@](O)([C@@H](OC(=O)c4ccccc4)[C@H]21)C3(C)C [Docetaxel] + CO[C@H]1C[C@@H]2CC[C@@H](C)[C@@](O)(O2)C(=O)C(=O)N2CCCC[C@H]2C(=O)O[C@H]([C@H](C)C[C@@H]2CC[C@@H](OCCO)[C@H](OC)C2)CC(=O)[C@H](C)/C=C(\C)[C@@H](O)[C@@H](OC)C(=O)[C@H](C)C[C@H](C)/C=C/C=C/C=C/1C [everolimus] (first compound 0.0001 µM, partner dose 0.02 µM)",41.1,41.6,57.1,21.3,–,32.4,–,–,27.3,39.7
"CO[C@H]1C[C@@H]2CC[C@@H](C)[C@@](O)(O2)C(=O)C(=O)N2CCCC[C@H]2C(=O)O[C@H]([C@H](C)C[C@@H]2CC[C@@H](OCCO)[C@H](OC)C2)CC(=O)[C@H](C)/C=C(\C)[C@@H](O)[C@@H](OC)C(=O)[C@H](C)C[C@H](C)/C=C/C=C/C=C/1C [everolimus] + CCCS(=O)(=O)Nc1ccc(F)c(C(=O)c2c[nH]c3ncc(Cl)cc23)c1F [PLX4720] (first compound 0.02 µM, partner dose 0.08 µM)",67.9,64.9,82.1,55.7,–,70.1,–,–,38.2,70.8
"CC(=O)c1c(C)c2cnc(Nc3ccc(N4CCNCC4)cn3)nc2n(C2CCCC2)c1=O [palbociclib] + COc1ccc(COc2ccc(Cc3cnc(N)nc3N)cc2OC)cc1 [GW2580] (first compound 0.04 µM, partner dose 1 µM)",87.7,70.6,104,75.8,–,81.3,70.6,69.1,77.4,–
"Nc1ncn([C@H]2C[C@H](O)[C@@H](CO)O2)c(=O)n1 [decitabine] + Cn1cncc1[C@@](N)(c1ccc(Cl)cc1)c1ccc2c(c1)c(-c1cccc(Cl)c1)cc(=O)n2C [tipifarnib] (first compound 0.1 µM, partner dose 0.01 µM)",106,75.1,66,69.3,83.8,126,96.1,62.5,51.8,–
"CC(=O)O[C@@]12CO[C@@H]1C[C@H](O)[C@@]1(C)C(=O)[C@H](O)C3=C(C)[C@@H](OC(=O)[C@H](O)[C@@H](NC(=O)OC(C)(C)C)c4ccccc4)C[C@@](O)([C@@H](OC(=O)c4ccccc4)[C@H]21)C3(C)C [Docetaxel] + O=C(O)c1ccc2c(c1)nc(Nc1cccc(Cl)c1)c1ccncc12 [CX4945] (first compound 0.0001 µM, partner dose 0.4 µM)",51.2,35,85.9,38.6,47.6,39.8,–,–,39.4,–
"CO[C@H]1C[C@@H]2CC[C@@H](C)[C@@](O)(O2)C(=O)C(=O)N2CCCC[C@H]2C(=O)O[C@H]([C@H](C)C[C@@H]2CC[C@@H](OCCO)[C@H](OC)C2)CC(=O)[C@H](C)/C=C(\C)[C@@H](O)[C@@H](OC)C(=O)[C@H](C)C[C@H](C)/C=C/C=C/C=C/1C [everolimus] + Nc1nc(F)nc2c1ncn2[C@@H]1O[C@H](CO)[C@@H](O)[C@@H]1O [fludarabine] (first compound 0.02 µM, partner dose 0.2 µM)",35.5,67.3,87.8,39.4,–,15.8,–,–,57.4,89.6
"Nc1ccn([C@@H]2O[C@H](CO)[C@@H](O)C2(F)F)c(=O)n1 [gemcitabine] + Cn1cc(/C=C2\C(=O)Nc3cccnc32)c2ccccc21 [GW441756] (first compound 0.0004 µM, partner dose 0.4 µM)",113,94.1,82.7,86.8,93.6,98.6,80.3,107,94.4,–
"CC(=O)O[C@@]12CO[C@@H]1C[C@H](O)[C@@]1(C)C(=O)[C@H](O)C3=C(C)[C@@H](OC(=O)[C@H](O)[C@@H](NC(=O)OC(C)(C)C)c4ccccc4)C[C@@](O)([C@@H](OC(=O)c4ccccc4)[C@H]21)C3(C)C [Docetaxel] + CC(C)C[C@H](NC(=O)[C@H](Cc1ccccc1)NC(=O)c1cnccn1)B(O)O [Bortezomib] (first compound 0.0001 µM, partner dose 0.001 µM)",38.7,25.1,73,47.3,–,36.2,–,–,40.3,–
"Nc1nc(F)nc2c1ncn2[C@@H]1O[C@H](CO)[C@@H](O)[C@@H]1O [fludarabine] + Oc1nc(-c2ccc(C(F)(F)F)cc2)nc2c1CSCC2 [XAV939] (first compound 0.2 µM, partner dose 2 µM)",31.3,85.4,85.5,77.5,2.77,16.7,49.3,90.6,91.2,–
"CO[C@H]1C[C@@H]2CC[C@@H](C)[C@@](O)(O2)C(=O)C(=O)N2CCCC[C@H]2C(=O)O[C@H]([C@H](C)C[C@@H]2CC[C@@H](OCCO)[C@H](OC)C2)CC(=O)[C@H](C)/C=C(\C)[C@@H](O)[C@@H](OC)C(=O)[C@H](C)C[C@H](C)/C=C/C=C/C=C/1C [everolimus] + Cc1ccc(NC(=O)c2cccc(N(C)C)c2)cc1NC(=O)c1ccc(O)cc1 [ZM336372] (first compound 0.02 µM, partner dose 2 µM)",65.4,64.9,88.6,55.2,–,59,110,70.3,70.3,–
"Nc1nc(F)nc2c1ncn2[C@@H]1O[C@H](CO)[C@@H](O)[C@@H]1O [fludarabine] + O=S(=O)(c1ccccc1)N(CC(F)(F)F)c1ccc(C(O)(C(F)(F)F)C(F)(F)F)cc1 [T0901317] (first compound 0.2 µM, partner dose 1.4 µM)",43.2,92.6,107,72.2,–,22.4,62.3,86.9,86.2,–
"CO[C@H]1C[C@@H]2CC[C@@H](C)[C@@](O)(O2)C(=O)C(=O)N2CCCC[C@H]2C(=O)O[C@H]([C@H](C)C[C@@H]2CC[C@@H](OCCO)[C@H](OC)C2)CC(=O)[C@H](C)/C=C(\C)[C@@H](O)[C@@H](OC)C(=O)[C@H](C)C[C@H](C)/C=C/C=C/C=C/1C [everolimus] + C[C@]1(c2nc3c(C(N)=O)cccc3[nH]2)CCCN1 [Veliparib] (first compound 0.02 µM, partner dose 1.4 µM)",69.5,86.3,78.6,54.9,–,59,–,–,64.8,78.3
